Some of the results follow.
Legend:
HSkMC = human skeletal muscle cells; test: cytotoxicity call (relative viability < 0.9); conditions: 10 µM
HepG2 = test: cytotoxicity call (relative viability < 0.9); conditions: 10 µM
S. aureus RN4220 = test: growth inhibition call (relative growth <= 0.2); conditions: 50 µM

C[C@H]1CCCCO[C@@H](CN(C)CC2CCCCC2)[C@@H](C)CN([C@@H](C)CO)C(=O)c2cc(NS(=O)(=O)c3ccc(Cl)cc3)ccc2O1
inactive: cytotoxicity call (HSkMC) | cytotoxicity call (HepG2) | growth inhibition call (S. aureus RN4220)

Cc1noc(C)c1S(=O)(=O)N(C)C[C@@H]1Oc2ccc(NS(=O)(=O)c3ccc(F)cc3)cc2C(=O)N([C@@H](C)CO)C[C@@H]1C
inactive: cytotoxicity call (HSkMC) | cytotoxicity call (HepG2) | growth inhibition call (S. aureus RN4220)

COc1ccc(S(=O)(=O)Nc2ccc3c(c2)CC(=O)N([C@@H](C)CO)C[C@H](C)[C@H](CN(C)Cc2ccncc2)O3)cc1
inactive: cytotoxicity call (HSkMC) | cytotoxicity call (HepG2) | growth inhibition call (S. aureus RN4220)

C[C@@H]1CN([C@H](C)CO)C(=O)CCCn2cc(nn2)CO[C@@H]1CN(C)C(=O)C1CC1
inactive: cytotoxicity call (HSkMC) | cytotoxicity call (HepG2) | growth inhibition call (S. aureus RN4220)

C[C@@H]1CN([C@H](C)CO)C(=O)c2cc(NS(=O)(=O)c3ccccc3)ccc2O[C@@H]1CN(C)S(=O)(=O)c1cccs1
inactive: cytotoxicity call (HSkMC) | cytotoxicity call (HepG2) | growth inhibition call (S. aureus RN4220)

C[C@@H]1CCCCO[C@H](CN(C)Cc2ccc(Cl)c(Cl)c2)[C@@H](C)CN([C@H](C)CO)C(=O)c2cc(N(C)C)ccc2O1
inactive: cytotoxicity call (HSkMC) | cytotoxicity call (HepG2) | growth inhibition call (S. aureus RN4220)

COc1ccc(S(=O)(=O)N(C)C[C@@H]2Oc3ccc(NC(=O)CCCN(C)C)cc3C(=O)N([C@@H](C)CO)C[C@H]2C)cc1
inactive: cytotoxicity call (HSkMC) | cytotoxicity call (HepG2) | growth inhibition call (S. aureus RN4220)

O=C1O[C@@H]2C[C@H]1N(C(=O)[C@@H]1CC=CCC1)C2
inactive: cytotoxicity call (HSkMC) | cytotoxicity call (HepG2) | growth inhibition call (S. aureus RN4220)

C[C@H](CO)N1C[C@H](C)[C@H](CN(C)C(=O)c2ccccc2)OCCCC[C@H](C)Oc2ccc(NC(=O)Nc3cccc4ccccc34)cc2C1=O
inactive: cytotoxicity call (HSkMC) | cytotoxicity call (HepG2) | growth inhibition call (S. aureus RN4220)

C[C@@H]1CCCCO[C@@H](CN(C)C(=O)c2ccccc2)[C@H](C)CN([C@H](C)CO)C(=O)c2cc(NC(=O)Nc3cccc4ccccc34)ccc2O1
inactive: cytotoxicity call (HSkMC) | cytotoxicity call (HepG2) | growth inhibition call (S. aureus RN4220)

C[C@@H]1CN([C@H](C)CO)C(=O)Cc2cc(NC(=O)CCCN(C)C)ccc2O[C@H]1CN(C)S(=O)(=O)c1ccc(F)cc1
inactive: cytotoxicity call (HSkMC) | cytotoxicity call (HepG2) | growth inhibition call (S. aureus RN4220)

From the antibiotic and cytotoxicity screens of Wong et al. (2023)
